From publication PMC4336329 (PLoS ONE, 2015) come the findings set out here.

The structures appear in SMILES notation. Out of some 310,000 compounds screened, about 2,200 (0.71%) showed an effect of 50% or more. The effect is printed as a negative number. This is one part of the list.

For the experiment, the target named is human ether-à-go-go-related gene (hERG) potassium channel (human, UniProt Q12809). The experiment is described as follows: primary screen, population patch clamp on CHO cells stably expressing hERG.
human ether-à-go-go-related gene (hERG) potassium channel, sequence (Q12809 whole entry, looked up): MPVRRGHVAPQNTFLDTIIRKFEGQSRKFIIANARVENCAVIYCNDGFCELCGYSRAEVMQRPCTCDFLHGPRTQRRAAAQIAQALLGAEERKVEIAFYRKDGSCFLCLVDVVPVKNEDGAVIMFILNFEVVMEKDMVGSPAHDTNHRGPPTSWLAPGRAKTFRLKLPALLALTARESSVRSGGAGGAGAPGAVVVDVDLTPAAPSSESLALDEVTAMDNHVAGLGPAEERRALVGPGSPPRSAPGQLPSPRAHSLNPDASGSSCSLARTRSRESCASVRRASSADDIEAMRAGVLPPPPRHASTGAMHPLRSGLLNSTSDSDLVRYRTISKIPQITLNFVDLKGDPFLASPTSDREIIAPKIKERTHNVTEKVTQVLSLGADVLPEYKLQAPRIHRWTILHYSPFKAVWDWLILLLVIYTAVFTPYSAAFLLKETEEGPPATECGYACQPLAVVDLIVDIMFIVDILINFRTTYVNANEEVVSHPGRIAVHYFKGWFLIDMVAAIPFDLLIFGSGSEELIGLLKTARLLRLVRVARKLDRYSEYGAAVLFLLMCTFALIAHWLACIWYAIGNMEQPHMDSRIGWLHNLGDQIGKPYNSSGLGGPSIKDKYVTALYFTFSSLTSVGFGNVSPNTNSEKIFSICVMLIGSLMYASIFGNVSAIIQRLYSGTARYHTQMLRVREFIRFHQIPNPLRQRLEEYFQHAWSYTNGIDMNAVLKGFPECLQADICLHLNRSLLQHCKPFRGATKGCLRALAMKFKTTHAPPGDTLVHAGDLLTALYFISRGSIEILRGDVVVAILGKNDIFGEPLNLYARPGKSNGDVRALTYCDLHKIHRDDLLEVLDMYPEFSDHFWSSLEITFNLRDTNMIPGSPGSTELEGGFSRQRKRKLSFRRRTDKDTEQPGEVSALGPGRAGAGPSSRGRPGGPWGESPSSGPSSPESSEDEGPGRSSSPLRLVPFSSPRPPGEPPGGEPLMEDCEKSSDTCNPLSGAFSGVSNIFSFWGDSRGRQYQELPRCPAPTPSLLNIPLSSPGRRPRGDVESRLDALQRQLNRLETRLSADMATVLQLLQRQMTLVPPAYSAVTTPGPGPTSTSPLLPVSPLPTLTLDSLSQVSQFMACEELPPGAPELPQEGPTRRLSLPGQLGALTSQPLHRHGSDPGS
For the molecule `O=C1CCC(=O)N1CC(=O)N(c1ccccc1)c1ccccc1`, the “hERG current change (%, negative = inhibition) at 1uM” value is -1.34%.

`CCCCCOC(=O)C(C)Sc1n[nH]c(=O)[nH]c1=O` (stereo not drawn): the “hERG current change (%, negative = inhibition) at 1uM” value came to 7.7%.

As to `CC1=NN(C(=O)Cc2ccc([N+](=O)[O-])cc2)C(O)(c2ccccc2)C1` (stereo not drawn), the “hERG current change (%, negative = inhibition) at 1uM” value turned out to be 3.62%.

On to `CN(C)CCNc1c2c(nc3nnnn13)CCCC2`, for which the “hERG current change (%, negative = inhibition) at 1uM” value is 2.28%.

For `CCOc1ccc(NC(=O)CN(C)C(=O)c2cccnc2Sc2ccc(C)c(C)c2)cc1OCC`, the “hERG current change (%, negative = inhibition) at 1uM” value was determined as 5.82%.

Take `CCN1C(=O)[C@H]2[C@@H](c3ccc(C)cc3)N3C(=O)N(c4ccc(OC)cc4)C(=O)[C@@]3(CC)[C@H]2C1=O`: the “hERG current change (%, negative = inhibition) at 1uM” value is listed as 15.6%.

In the case of `Cc1nn(CC(=O)NC(C)c2ccccc2)c(=O)c2ccccc12` (stereo not drawn), the “hERG current change (%, negative = inhibition) at 1uM” value was 17.6%.

For `CCN(CC)C(=O)C(=O)c1cccn1-c1cccc(-n2cccc2C(=O)C(=O)N(CC)CC)c1C#N`, the “hERG current change (%, negative = inhibition) at 1uM” value worked out at 15.2%.

On to `CCN1C(=O)C(O)(CC(=O)/C=C/C=C/c2ccccc2)c2ccccc21` (stereo not drawn), for which the “hERG current change (%, negative = inhibition) at 1uM” value is 7.97%.

As for `CCCCSc1nnc(-c2ccc(C)cc2)o1`, the “hERG current change (%, negative = inhibition) at 1uM” value was 9.78%.

Regarding `COc1ccc(NC(=O)CSc2nccn2-c2ccccc2)c(OC)c1`, the “hERG current change (%, negative = inhibition) at 1uM” value stood at 7.53%.

In the case of `O=c1cc(-c2ccccc2)c2cc3c(cc2[nH]1)OCCO3`, the “hERG current change (%, negative = inhibition) at 1uM” value was 16%.

On to `Cc1nc([N+](=O)[O-])cn1C(C)C`, for which the “hERG current change (%, negative = inhibition) at 1uM” value came to 11.6%.

Turning to `CCOc1ccc(NC(=O)c2cc(=O)[nH]c3ccccc23)cc1`, the “hERG current change (%, negative = inhibition) at 1uM” value is 9.69%.

For `Cc1ccc2c(c1)sc1nc(=O)n(-c3ccc(Cl)c(Cl)c3)c(=O)n12`, the “hERG current change (%, negative = inhibition) at 1uM” value was 8.13%.

`CO/N=C/NC(=O)c1cn(-c2ccc(F)cc2)c(=O)c2ccccc12`: the “hERG current change (%, negative = inhibition) at 1uM” value stood at 7.78%.

Consider `O=C(NCc1ccccc1OC(F)(F)F)C1CCC(=O)N(Cc2cccc(F)c2)C1` (stereo not drawn), for which the “hERG current change (%, negative = inhibition) at 1uM” value was determined as 9.17%.

For `Cc1noc(C)c1COC(=O)c1ccc2c(c1)OCO2`, the “hERG current change (%, negative = inhibition) at 1uM” value was 7.03%.

With `Cc1cccc2nc(CSc3ccccc3N)cn12`, the “hERG current change (%, negative = inhibition) at 1uM” value amounted to 4.45%.

On to `COc1c(OC(C)=O)c(=O)n2c3ccccc3c3ccnc1c32`, for which the “hERG current change (%, negative = inhibition) at 1uM” value is 10.1%.

As to `Cc1cc(C)n(-c2ccc(NC(=O)C3CCCCN3C(=O)c3ccc(C)s3)cc2)n1` (stereo not drawn), the “hERG current change (%, negative = inhibition) at 1uM” value amounted to 8.63%.

Regarding `COc1ccc(C(=O)Nc2ccccc2N2CCCC2)cc1`, the “hERG current change (%, negative = inhibition) at 1uM” value was -9.98%.

`Cc1ccc(N2C=Nc3ccc(C)c4nc(C)cc2c34)cc1`: the “hERG current change (%, negative = inhibition) at 1uM” value amounted to 0.692%.

With `Cn1c(O)c(C=NCc2ccco2)c(=O)n(C)c1=O`, the “hERG current change (%, negative = inhibition) at 1uM” value is recorded as -4.48%.

As to `O=c1c(-c2ccccc2)nc(-c2ccccc2)cn1O`, the “hERG current change (%, negative = inhibition) at 1uM” value turned out to be 6.43%.

Take `CCNc1nc(NCC)nc(OCCOC(=O)c2ccccc2)n1`: the “hERG current change (%, negative = inhibition) at 1uM” value is on record as -2.13%.

In the case of `O=C(Nc1ccc(Cl)cc1)[C@@H]1[C@@H]2C(=O)N(c3ccc4ccccc4c3)C(=O)[C@@H]2[C@H]2C=CC=NN21`, the “hERG current change (%, negative = inhibition) at 1uM” value is given as -0.317%.

`CCc1ccc(OCC(=O)NC(=S)Nc2cccc(CO)c2)c(Br)c1`: the “hERG current change (%, negative = inhibition) at 1uM” value is 7.5%.

As for `CC(C)NC(=O)CN1CCN(c2ncccn2)CC1.O=C(O)C(=O)O`, the “hERG current change (%, negative = inhibition) at 1uM” value stood at 9.84%.

Turning to `CC12CC3(C)CC(C)(C1)CC(NC(=O)N1CCCC1)(C2)C3`, the “hERG current change (%, negative = inhibition) at 1uM” value amounted to 9.58%.

Regarding `Cc1cc(N2CCN(C)CC2)n2cc(-c3ccc(F)cc3)nc2n1`, the “hERG current change (%, negative = inhibition) at 1uM” value is reported as -89.8%.

For `O=C(CCCN1C(=O)c2cccc3cccc(c23)C1=O)NCCN1CCOCC1`, the “hERG current change (%, negative = inhibition) at 1uM” value is given as 6.26%.

On to `CC1CCCCC1NC(=O)c1cc2c(=O)n3ccccc3nc2n1C` (stereo not drawn), for which the “hERG current change (%, negative = inhibition) at 1uM” value worked out at 7.84%.

Take `Cc1cc(C)nc(-n2nc(C)c(Sc3ccc(F)cc3)c2N)n1`: the “hERG current change (%, negative = inhibition) at 1uM” value was -11.3%.

With `CCOC(=O)c1oc2ccccc2c1COC(=O)CNC(=O)c1cc(OC)c(OC)c(OC)c1`, the “hERG current change (%, negative = inhibition) at 1uM” value is 1.17%.

With `O=C(CNC(=O)c1ccc(Br)cc1)NCC(=O)OCC(=O)c1ccc([N+](=O)[O-])cc1`, the “hERG current change (%, negative = inhibition) at 1uM” value worked out at 12.9%.

On to `O=C1C2CCCCN2C(=O)N1CCCN1CCN(c2ccc(F)cc2)CC1` (stereo not drawn), for which the “hERG current change (%, negative = inhibition) at 1uM” value is -3.12%.

Consider `CCOC(=O)CNc1nc(C(C)(C)C)nc2c1nnn2Cc1ccccc1`, for which the “hERG current change (%, negative = inhibition) at 1uM” value amounted to 10%.

On to `CCCc1nc(SC)[nH]c(=O)c1C`, for which the “hERG current change (%, negative = inhibition) at 1uM” value was found to be 11.1%.

Turning to `CCc1ccc(C(=O)NC(=S)Nc2ccc(N3CCOCC3)cc2)cc1`, the “hERG current change (%, negative = inhibition) at 1uM” value was 7.41%.

`Nc1ncn(CC(=O)c2ccccc2)n1`: the “hERG current change (%, negative = inhibition) at 1uM” value was determined as 2.92%.

As for `CCOc1ccc(C(=O)NCCCn2ccnc2)cc1`, the “hERG current change (%, negative = inhibition) at 1uM” value was -8.73%.

On to `OCCC1CN(C/C=C/c2ccco2)CCN1Cc1ccccc1` (stereo not drawn), for which the “hERG current change (%, negative = inhibition) at 1uM” value was 7.33%.

For the molecule `COc1ccc(-c2cc(C(=O)NC(Cc3cc4ccccc4[nH]3)C(=O)O)c(C)o2)cc1OC` (stereo not drawn), the “hERG current change (%, negative = inhibition) at 1uM” value was found to be 18.3%.

Take `COc1ccc(CCC(=O)OCC(=O)NCc2ccc3c(c2)OCO3)cc1`: the “hERG current change (%, negative = inhibition) at 1uM” value is reported as -5.62%.
